In all, about 48,000 compounds went through this assay and about 1,200 (2.5%) were called active. Another 2% or so got no clear call; they are omitted.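 The calls were made as follows: active = activation of at least 60% and not above a set upper limit (about 1 call in 100 departs from these limits); inconclusive = activation of 40% to 60%, or above that upper limit; inactive = activation under 40%.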 This is one part of the list.
Target: Probable G-protein coupled receptor 32 (Homo sapiens) (UniProt O75388)
UniProt O75388, sequence (O75388 whole entry, looked up): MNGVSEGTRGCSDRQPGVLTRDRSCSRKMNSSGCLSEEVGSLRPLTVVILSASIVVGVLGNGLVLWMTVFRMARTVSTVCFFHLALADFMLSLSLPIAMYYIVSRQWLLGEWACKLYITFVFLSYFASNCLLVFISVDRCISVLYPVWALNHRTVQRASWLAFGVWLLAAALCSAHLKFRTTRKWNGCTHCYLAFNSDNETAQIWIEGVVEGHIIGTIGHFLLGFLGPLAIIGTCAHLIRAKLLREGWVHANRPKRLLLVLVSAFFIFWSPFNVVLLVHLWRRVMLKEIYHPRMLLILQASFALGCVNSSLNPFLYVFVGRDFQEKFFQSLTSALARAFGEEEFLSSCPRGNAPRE
Assay: qHTS for Agonists of Human Resolvin D1 Receptor DRV1; also: 0% is about no effect
Conditions: CHO-K1 GPR32 beta-arrestin PathHunter luminescence, 90 min; at 76.9 µM; hits give high values; zero percent set by DMSO-only wells
How it was run: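 Agonism was scored by beta-Gal fragment complementation (chemiluminescent read, 1 h detection at ambient temperature) reporting beta-arrestin binding to GPR32 in engineered CHO-K1 cells. Compound treatment lasted 90 min at 37 C, normalized to a DMSO basal control.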

activation, active:
Cc1c(Cl)cccc1NS(=O)(=O)c1ccc2[nH]cc(C(=O)NC3CCCC3)c(=O)c2c1 101%
CC(=O)c1cccc(NS(=O)(=O)c2ccc3[nH]c4c(c3c2)CCCCCC4)c1 100%

activation, inactive:
C#CC(C)(C)NS(=O)(=O)c1cc(-c2nnc(Nc3ccc(C)cc3)c3ccccc23)ccc1C 43.1%
Cc1ccc(NC(=O)CN(c2ccccc2)S(=O)(=O)N(C)C)cc1Cl 43.1%
Cc1ccc(NC(=O)NCc2ccc3c(c2)CCN3C(=O)c2ccccc2)c(Cl)c1 -14.2%
COc1ccc(NC(=O)c2cn(CC(C)C)c(=O)c3cc(OC)c(OC)cc23)cc1Cl -3.22%
NS(=O)(=O)c1ccc(CCNC(=O)CCCCCn2c(=O)[nH]c3ccccc3c2=O)cc1 -11.1%
Cc1ccc(NC(=O)c2nn(C)c3c2CS(=O)(=O)c2ccccc2-3)c(Cl)c1 -9.21%
COc1ccc(-c2nc3c(c(SCC(=O)Nc4ccc(C(=O)O)cc4)n2)Cc2ccccc2O3)cc1 -8.47%
CCOC(=O)Cc1ccc(NC(=O)Nc2cccc(OCc3cc(=O)n4cc(C)ccc4n3)c2)cc1 -7.62%
O=C(CCCCCn1c(=O)c2sccc2n(CC(=O)Nc2cccc(Cl)c2)c1=O)NCc1ccc2c(c1)OCO2 -12.8%
Oc1c(C(c2ccccc2)N2CCC3(CC2)OCCO3)sc2nc(-c3ccco3)nn12 (stereo unspecified) -13.6%
Cc1nc(N2CCOCC2)c2c(C(=O)NCc3cccc(Cl)c3)c(C)oc2n1 -12.9%
COc1cccc(C(=O)NC2(C(F)(F)F)C(=O)Nc3c2c(=O)[nH]c(=O)n3-c2ccc(C)cc2)c1 (stereo unspecified) -5.74%
CCc1c(C)sc2c1CCN(C(=O)Nc1cc(OC)c(OC)c(OC)c1)C2c1ccccc1 (stereo unspecified) 2.98%
CCc1cccc(NC(=O)CSc2ncc3c(n2)-c2ccc(Cl)cc2N(Cc2ccccc2)S3(=O)=O)c1 1.99%
CCCCOc1ccc(CNC(=O)CN2CCSc3ccccc32)cc1 -39.1%
Cc1ccc(CCNC(=O)c2nn(C)c3c2CSc2ccccc2-3)cc1 -1.95%
O=S(=O)(c1ccc(Br)cc1)c1nc(-c2ccco2)oc1SCc1ccccc1Cl -17.6%
NC/C=C\C(=O)O -0.562%
CCC(C(=O)N1CCN(c2cccc(C)c2C)CC1)n1nc(C)c2sc3ccccc3c2c1=O (stereo unspecified) -17.7%
CCCNC(=O)C1CCC(Cn2c(=O)c3sccc3n(Cc3cccc(OC)c3)c2=O)CC1 (stereo unspecified) -1.63%
CCn1nnc2cc(C(=O)Nc3cccc(Cl)c3)ccc21 -6.66%
Cc1nc2nc(NC(=O)c3cccc(Cl)c3)[nH]n2c(=O)c1Cc1ccccc1 30.8%
COc1cccc(CNC(=O)CCn2c(=O)c3cccn3c3ccc(F)cc32)c1OC -12.3%
COc1ccc(-n2nc(C(=O)N(C)c3cccc(C(F)(F)F)c3)c3c4ccccc4n(C)c3c2=O)cc1 -16.4%
Cc1ccc(NC(=O)CCn2c(=O)c3cccn3c3ccccc32)c(Cl)c1 -17.2%
COc1ccc(CCNC(=O)CCc2c(C)nc3c(c(C)nn3-c3ccc(C)c(C)c3)c2C)c(OC)c1OC 22.3%
CCOc1ccc(-n2c(-c3ccc(C)cc3)nc3c(cnn3-c3ccccc3)c2=O)cc1 -1.15%
CCOC(=O)C1CCC(CN(Cc2ccccc2)S(=O)(=O)c2ccc(Cl)cc2)CC1 (stereo unspecified) -25.6%
COc1ccc(CCNC(=O)Cn2cc(C(=O)c3ccccc3)c(=O)c3ccc(C)nc32)cc1OC -5.87%
CCOC(=O)c1c(S(=O)(=O)N2CCC(C(=O)Nc3ccccc3OC)CC2)c(C)n(CC)c1C -5.93%
Cc1cc(C)c(Cn2c3ccccc3c3cnn(CC(=O)N4CCCCC4)c(=O)c32)c(C)c1 -7.91%
Cc1ccccc1C(=O)Nc1ccccc1C(=O)OCc1cc(=O)n2ccsc2n1 10.2%
CN1C(=O)CC(=O)N(C)c2cc(S(=O)(=O)N(C)Cc3ccccc3)ccc21 6.77%
CCn1cc(C(=O)NCCc2ccc(C)cc2)c(=O)c2cc(S(=O)(=O)N(C)C)ccc21 -6.63%
CCOc1ccc(OCC)c(Nc2nc3ccccc3c3nnc(C)n23)c1 -8.58%
Cc1ccc2c(c1)c1c(c(=O)n(-c3ccccc3)c(=O)n1CC(=O)N1CCCC1)n2C -16%
COc1cccc(N2CC(NC(=O)Cc3cccs3)CC2=O)c1 (stereo unspecified) -4.11%
CCCCN(CCCC)CCNC(=O)c1cn(C)c2ccc(S(=O)(=O)N3CCOCC3)cc2c1=O -4.54%
Cc1ccc(-n2ncc(C(=O)NCCN3CCN(C)CC3)c2C2CCN(C(=O)OC(C)(C)C)CC2)c(C)c1 -6.28%
Cc1ccc(S(=O)(=O)c2nc(-c3cccs3)oc2N2CCCCC2)cc1 -2.2%
COc1ccc2c(c1)c1c(c(=O)n(-c3ccc(OC)c(OC)c3)c(=O)n1Cc1ccccc1C)n2C -12.7%
COc1cccc(CN2CCc3nc(Nc4ccc5c(c4)OCCO5)ncc3C2)c1 -30.9%
Cc1ccc2nc(N(Cc3cccnc3)C(=O)Cc3ccccc3)sc2c1 -26.7%
Cc1ccccc1Cn1c(SCc2ccc(C(=O)NC(C)c3ccccc3)cc2)nc2ccncc21 (stereo unspecified) 7.41%
CCc1ccccc1NC(=O)CCn1nc(C)c2c(C)n(-c3ccccc3)nc2c1=O -6.21%
CCOC(=O)c1ccccc1NC(=O)Cn1ncc2c([nH]c3ccccc32)c1=O 22%
COc1cccc(C2CC(=O)Nc3cc4c(cc32)OCCO4)c1OC (stereo unspecified) -8.96%
COc1ccc(C(=O)CN2CCN(S(=O)(=O)c3ccc(C(C)C)cc3)CC2)cc1 19.8%
O=C(NCCc1cccs1)c1ccc(Cn2c(SCc3ccc(F)cc3)nc3cccnc32)cc1 -19.5%
